Data on two substances can be found in patent US5464944A (priority 1993, dated 1995).

Like-named read-outs stand apart in the source and are kept apart here.

Test [1] deals with A. flavus. The procedure: (§1) The antifungal activity of compounds synthesized in accord with this invention was measured using art-recognized methods, as described in Duvick et al., J. Biol. Chem. 26:18814-18820 (1992). Results are as follows:
(§2) MIC is the minimum inhibitory concentration, the concentration in μg/ml achieving a score of 1 or greater. MCIC is the Minimum Complete Inhibitory Concentration, the concentration in μg/ml achieving a score of 3 or greater.

Test [2] concerns F. moniliforme. The procedure:
as §1, §2

The test system of test [3] is F. graminearum. Format: cell-based.

With Cecropin A, the “MCIC (Minimum Complete Inhibitory Concentration)” value in test [1] is greater than 80; in test [2], greater than 80; in test [3] (concentration achieving a score of 3 or greater) it was greater than 80 µg/mL. Besides, the results for the “MIC (minimum inhibitory concentration)” value in test [1], in test [2] and in test [3] (concentration achieving a score of 1 or greater) were 80, 80 and 60 µg/mL, respectively.
Mastoparan: the “MIC (minimum inhibitory concentration)” value was determined as 20 µg/mL in test [1] (A. flavus, concentration achieving a score of 1 or greater) and 2.5 µg/mL in test [2] (F. moniliforme, concentration achieving a score of 1 or greater). Besides, the “MCIC (Minimum Complete Inhibitory Concentration)” value in test [1] (A. flavus, concentration achieving a score of 3 or greater) was determined as 40 µg/mL; in test [2] (F. moniliforme, concentration achieving a score of 3 or greater), 10 µg/mL.
